Binding signal (log2 normalized intensity) data for 73 sequences are collected here from publication PMC10726135.

The list shows a part of the results. At the low end of the ranking the order means little. The protein was read in a cell extract, so binding may be indirect.

This assay has as its target T1, HNF4alpha8 (COS-7 nuclear extract) (UniProt P41235-5).
T1 sequence: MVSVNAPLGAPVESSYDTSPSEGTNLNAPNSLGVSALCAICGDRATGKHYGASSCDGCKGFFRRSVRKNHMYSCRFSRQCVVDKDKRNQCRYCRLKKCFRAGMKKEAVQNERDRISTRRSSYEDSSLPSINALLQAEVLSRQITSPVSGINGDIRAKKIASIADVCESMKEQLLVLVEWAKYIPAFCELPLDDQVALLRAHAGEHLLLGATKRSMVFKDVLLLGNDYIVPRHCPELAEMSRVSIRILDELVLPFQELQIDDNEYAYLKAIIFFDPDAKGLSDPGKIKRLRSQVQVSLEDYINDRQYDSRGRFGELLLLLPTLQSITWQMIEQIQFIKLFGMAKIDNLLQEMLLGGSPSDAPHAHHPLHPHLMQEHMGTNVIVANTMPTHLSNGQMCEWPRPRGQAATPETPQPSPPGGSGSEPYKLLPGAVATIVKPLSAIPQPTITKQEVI
Description: protein-binding microarray. Conditions: COS-7 nuclear extract on double-stranded Agilent 4x180k PBM; binding buffer, salt, pH and temperature not given; high values mean tight binding; double strand, one strand shown; sequences stand for … in …GCCTAGGGAGATTAGAGTATCGGTCGA
For the sequence GCAAGATAATGTCAAAAATCTTAAGGAGGA, the binding signal (log2 normalized intensity) is -1.26.
Turning to CACCACAAGTTTGAACTGCACAGGCCTACT, the binding signal (log2 normalized intensity) is -1.33.
As to CAACAGGGTTAAAAGCAAACCAAAAAGTTG, the binding signal (log2 normalized intensity) is -1.22.
With GCTACTGCTCCACCTTTGAAATCTCAAATA the figure was -0.729; with TCTCTAGAATGAGCCTCTTCTTTAATAAGA, -1.32; with AGTTTATCGAAAATCCCCCACCATTGTTAT, 4.35.
With AAAAATGATGCTACTGGAGGTATAATATCT the figure was 0.4; with ATTCCCGCCGCCTCCGCTGGGGGACGCGAC, -1.39.
As to TTACCCTGCAGTGTGACCTTTGCCTTCTTG, the binding signal (log2 normalized intensity) was found to be 8.09.
For TGGTAAAGATGACCAGCGTGTGGCGCCATT, the binding signal (log2 normalized intensity) was -1.24.
With AGTGTACGTTGTACCCCACAGGTATTCTTT, the binding signal (log2 normalized intensity) was determined as 2.48.
Next, TGCTGATAAAGGGTGTGAGAGAGAAGGCAA: -1.28; GCCTGGGCGCGCCTGCCCTTCGCTCCCCGA: 3.16.
Take GAATTTTTCCCCTAGTTACAACTGTAAACA: the binding signal (log2 normalized intensity) stood at 1.34.
Take GATAAGCGTATTTCAACCTTTGATCTATAA: the binding signal (log2 normalized intensity) was found to be 6.82.
For ATATTCTGAGACAACACTCAGGATACCTAA, the binding signal (log2 normalized intensity) was -1.38.
With TGAGTATGAGTAGGCTGTAGAGGAGATGTG the figure was 0.307; with CTTTATCCAAATAACCATGCTCAACATCAA, -1.29; with CACCTCTGCTTATCTCAACTGATTTACCTC, 0.918.
Next, AGAGGCTCCAGAAGGAATGCAGCCCTGTTG: -1.33; GGCAGGCTTCGAAAAATGGGTCTGGGATGT: 0.36.
Next, ATGGAGTGCTCTGAACCGTGTACCTGGGGC: 1.06.
Consider CACTGCTTTGAAAAAACCTGTTCAGCCAGA, for which the binding signal (log2 normalized intensity) was -1.27.
For TCTCAGCCGCGCGGCTTCAGAGGCCAGCAG, the binding signal (log2 normalized intensity) is -1.3.
As to CCAACTAGAATGGAACTGAAGGCAGGAAAG, the binding signal (log2 normalized intensity) is -1.38.
Regarding AGCTGTGCGCTTAGTCCATGACGCAAGCGA, the binding signal (log2 normalized intensity) was -0.944.
Next, GGCCCCAGGAGACCCCGCGAGACGGGTGCG: 1.04.
Consider CTATCTGCTGGGGGCTGGGCCCCACAGTGC, for which the binding signal (log2 normalized intensity) was -1.31.
For CTGCCCTTCGTCCTGAGCAGTCCCTTCCCC, the binding signal (log2 normalized intensity) stood at 2.63.
As to GACGCGCCGGCGCAGCCGCGCTCCGCCCCG, the binding signal (log2 normalized intensity) was -1.04.
As for TAGGGGTGGGATGGGGAGCAGTGGGAGGTG, the binding signal (log2 normalized intensity) is -1.24.
With CCCTGGGGAAGGCAGGTCTCTCTCATTCAC the figure was -1.33.
Regarding AGAATCTTATCAGCAGATAAGGGCAGAGAG, the binding signal (log2 normalized intensity) is -0.864.
With CAGCACTCTCTGATTACACAGGCCTTATAG the figure was -1.36.
With CTTAGATAGCAGTGTGAGTGTCAGAGGCTA the figure was -1.26.
With ATTAACACAGCTCTAGAGGGCTGCTTATCT the figure was -1.31.
Regarding GAAGAATCTGTATCAGCCTGTGACAAAGTC, the binding signal (log2 normalized intensity) is -0.155.
Next, CCCAACAGACTTTCCCCCTATTTCCCTCTG: 2.58; TTTGTTGTTGAGCAAATCATAGTGTTTCTT: 1.29; GGACGCTTTAGAGAAACGCACTCGCCTCTC: -1.42.
As to AAAAGAAAGCCCATTAAATCTTCCCTCCTG, the binding signal (log2 normalized intensity) was -1.34.
With TTGATCAGCATTCAAATGAGGGCAGGATGC the figure was -0.178; with ATCACAAACTTTAGTAGTCCAAAGCTCAGA, 1.38; with TATCATCTTCCCTGTTCAAACTAAACCTAA, -1.04.
As to CAGCTAGTGAGATACGGCCTGGACTCCAAG, the binding signal (log2 normalized intensity) turned out to be 1.66.
For the sequence TTTGGAAAATATTGCCAATATCTGCCATCT, the binding signal (log2 normalized intensity) was -1.36.
As for GTCTAAAGTTCAGTGAGATTAGGAAGTGTG, the binding signal (log2 normalized intensity) is 1.87.
GCTCACTCCTGGGACAAGGACTTTGGCTAG: the binding signal (log2 normalized intensity) came out at 3.1.
Next, CTGAACCTTGGATCTCCTGCACCTGAACTT: 2.23; TCTTAGCCATGTTCTCTAGAAACAGAGCCC: -1.28.
Regarding TAGACCAGCCAATTCTACTGGAAGTAGGTA, the binding signal (log2 normalized intensity) turned out to be 0.931.
Next, GGCAAAGGTCACAGCATTAGAGCAACCAGA: 0.444.
With GATCAAAAACTGCCTAAATCCAAAGGGCAT, the binding signal (log2 normalized intensity) worked out at 2.44.
In the case of ATAACACCTATGTGCAAAATACCTGGAAGT, the binding signal (log2 normalized intensity) was -0.811.
In the case of TTCAATATACAGTTGGTATTTAGTAAATAT, the binding signal (log2 normalized intensity) turned out to be 1.39.
Consider CTCACACACACACACACACAGCTTGGAGCT, for which the binding signal (log2 normalized intensity) was -1.34.
Regarding ACTCAATGCTGCTGATGCAGAGGGTGCAAA, the binding signal (log2 normalized intensity) is 0.744.
As to TTTTTTTTTTGAGATGGAATCTTGCCCTGT, the binding signal (log2 normalized intensity) is 3.54.
With TCATAAAACACCCACCTTGTTATCTTGTCT the figure was 1.34; with GCATGAGACTGAAATTCCTTGACCCTGAAA, 2.12.
Next, GAGAATTAAACTGCCGCGCCACTGCGTCCA: -1.31.
On to TTTGACATCACCTAACTTGTGGCTGGGTGA, for which the binding signal (log2 normalized intensity) was 1.15.
With GGGCAGCTCCGTTTACCTAGAGGCAGGCGT the figure was -1.24; with TAGAATTGCACTGCAAAGAAGTCAAACTTT, 1.07; with GATAACATCTGGACTTTACACAGACCTTTA, 4.07.
With ACTTAAGTCTCAAAGGTCAGATGACAGAAT the figure was 4.77; with CTGGCTTTCTTTGGAGTCAATCTGCAAAGG, 1.18; with ACATGGAATGTCGTGCCCTAATCTCACTCT, -0.136.
Next, ACAGATCAGATATGAGATTCCCAGAGAGCT: -1.32; GCCTCACACCCTCTAGGGTAGATAAGGATG: -0.448.
Consider AGATTAATGTCAGCCTGCTCAGGGAGAAGC, for which the binding signal (log2 normalized intensity) is -1.33.
In the case of ATACTGCAGCTCTGCGTCTTACTAAATGCA, the binding signal (log2 normalized intensity) is -1.18.
As for TGTGTCTTATTTATCTTCACATTCCATCAT, the binding signal (log2 normalized intensity) was 1.3.
